# Measured values: PubChem BioAssay (NCATS)
# This list was built around the results that the source calls inconclusive (neither active nor inactive); the mix of calls is not that of the screen. For some of these results: No potency is given beside an inconclusive call; the fits are too rough. The source made the active and inactive calls. Unless noted, the call rests on the fitted dose curve; in most records, active means well fitted curve in the direction sought with a large enough effect; inconclusive means small, poorly fitted or top-dose-only effect, or another doubt; inactive means no such curve, though single readings can be large; an effect the other way counts as inactive or inconclusive.
# How the values were obtained:
# [1] = Primary redox qHTS assay for identification of artifact compounds. (AID 1845223)
# How it was run: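 Amplex Red (25 uM) and HRP (250 mU/mL) in HBSS, with compounds for 15 min, then 250 uM DTT for 30 min, room temperature, dark. Fluorescence 525/598 nm read; normalized to DMSO and 10 uM DA3003; Hill fit.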
# [2] = qHTS of pediatric cancer cell lines to identify multiple opportunities for drug repurposing: Primary screen for NB-EBc1 cells (AID 1347095); further: potency means the concentration at half of the fitted maximal effect
# How it was run: (§1)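 ATP-based luminescence (CellTiter-Glo) quantifies viability after a 48-hour exposure. Compounds are dosed across 8 or 11 final concentrations; DMSO and 2.3 µM bortezomib serve as controls.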
# [3] = target: Cytochrome P450 2C9 (Homo sapiens) (UniProt P11712); test: Cytochrome P450 family 2 subfamily C member 9 (CYP2C9) small molecule antagonists: luciferase biochemical (cell-free) qHTS assay (AID 1645842; active means well fitted curve in the direction sought with a large enough effect in the repeat runs; inconclusive means weak or mixed curves; inactive means no such curve, though single readings can be large; an effect the other way counts as inactive or inconclusive; further: nearly all actives have a fitted effect of over 55% in size; further: potency means the concentration at half of the fitted maximal effect)
# Sequence of UniProt P11712 (P11712 whole entry, looked up): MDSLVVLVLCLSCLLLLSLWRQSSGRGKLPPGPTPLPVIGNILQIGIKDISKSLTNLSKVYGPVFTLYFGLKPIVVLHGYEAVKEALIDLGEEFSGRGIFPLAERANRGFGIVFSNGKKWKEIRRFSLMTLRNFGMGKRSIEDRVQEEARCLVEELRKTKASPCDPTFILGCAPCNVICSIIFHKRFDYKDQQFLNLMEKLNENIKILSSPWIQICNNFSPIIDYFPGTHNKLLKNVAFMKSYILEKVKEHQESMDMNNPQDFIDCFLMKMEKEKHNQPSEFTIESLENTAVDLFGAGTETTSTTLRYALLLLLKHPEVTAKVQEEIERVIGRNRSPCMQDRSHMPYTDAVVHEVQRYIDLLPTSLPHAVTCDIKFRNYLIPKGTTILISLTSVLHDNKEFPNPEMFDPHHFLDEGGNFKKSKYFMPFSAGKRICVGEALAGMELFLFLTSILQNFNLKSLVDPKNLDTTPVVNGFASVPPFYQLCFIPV
# How it was run: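 Luminescence, after 20 min with luciferin detection reagent, reflected CYP2C9 turnover during a 1 h NADPH-driven reaction at 37C. Enzyme-substrate mix contained 0.4% bovine serum albumin and was preincubated with compound 10 min at room temperature.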
# GB4 = test: qHTS profiling for inhibitors of Plasmodium falciparum proliferation (AID 504749); further: nearly all actives have a fitted effect of over 60% in size; further: potency means the concentration at half of the fitted maximal effect; conditions: P. falciparum in erythrocytes, SYBR Green DNA, 72 h; series mostly up to 28.7 µM
# How it was run: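 Readout was DNA-dye fluorescence from lysed cultures, ex 485/em 535 nm. Parasitized red cells had grown 72 h with compound; data scaled between 0.29 uM artemisinin and DMSO wells and corrected using vehicle-only plates.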
# [4] = target: Calcium and integrin-binding protein 1 (Homo sapiens) (UniProt Q99828); test: Primary qHTS for Identification of Calcium Integrin Binding Protein 1 (CIB1) Competitor (AID 1508620);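 further: GST tagged CIB1 binding a fluorescein labelled alphaIIb integrin peptide tracer; top concentration of the series differs between compounds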
# Sequence of UniProt Q99828 (Q99828 whole entry, looked up): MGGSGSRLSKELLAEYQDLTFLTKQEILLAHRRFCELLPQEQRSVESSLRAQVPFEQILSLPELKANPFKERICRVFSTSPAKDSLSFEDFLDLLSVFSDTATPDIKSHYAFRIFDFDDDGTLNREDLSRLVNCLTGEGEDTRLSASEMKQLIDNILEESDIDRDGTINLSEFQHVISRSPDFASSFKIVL
# How it was run: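 Fluorescence polarization competition: GST-tagged CIB1 (1 uM final) preincubated with compound 15 min at room temperature, then FITC-labelled alphaIIb peptide (100 nM final) added. After 15 min at room temperature, polarization read at Ex 480/Em 540.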
# JEG-3 = test: Primary qHTS to identify gynecologic anti-cancer compounds using libraries of approved drugs and bioactive compounds (AID 1345084); conditions: Gynecologic cancer cell panel viability, ATPlite luminescence, 48 h; series mostly up to 57.5 µM; further: nearly all actives have a fitted effect of over 55% in size; further: potency means the concentration at half of the fitted maximal effect
# How it was run: (§2)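 Cells, 1,000 per well, were allowed to settle for 16 h at 37 C before compound addition. Five concentrations were tested for 48 h, and viability was read by ATPlite luminescence after 15 min at room temperature.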
# [5] = Drug repurposing screens with cells derived from glioblastoma tumor samples (AID 1345199); conditions: GBM patient neurospheres viability, ATP luminescence, 48 h; Potency: tumour line A unless noted; series mostly up to 46 µM; further: nearly all actives have a fitted effect of over 40% in size; further: potency means the concentration at half of the fitted maximal effect
# How it was run: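 Four patient lines of CD133+ GBM neurospheres were screened at several concentrations; hits were retested in those lines plus three slower-growing GBM lines, using 48-hour treatment and ATP-based viability.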
# [6] = qHTS of pediatric cancer cell lines to identify multiple opportunities for drug repurposing: Primary screen for Rh41 cells (AID 1347108);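 further: luminescence drop marks cytotoxic hits; nearly all actives have a fitted effect of over 70% in size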
# How it was run: as §1
# [7] = target: Cytochrome P450 3A4 (Homo sapiens) (UniProt P08684); test: Cytochrome P450 family 3 subfamily A member 4 (CYP3A4) small molecule antagonists: luciferase qHTS assay (AID 1645841; active means well fitted curve in the direction sought with a large enough effect in the repeat runs; inconclusive means weak or mixed curves; inactive means no such curve, though single readings can be large; an effect the other way counts as inactive or inconclusive; further: nearly all actives have a fitted effect of over 45% in size; further: potency means the concentration at half of the fitted maximal effect)
# Sequence of UniProt P08684 (P08684 whole entry, looked up): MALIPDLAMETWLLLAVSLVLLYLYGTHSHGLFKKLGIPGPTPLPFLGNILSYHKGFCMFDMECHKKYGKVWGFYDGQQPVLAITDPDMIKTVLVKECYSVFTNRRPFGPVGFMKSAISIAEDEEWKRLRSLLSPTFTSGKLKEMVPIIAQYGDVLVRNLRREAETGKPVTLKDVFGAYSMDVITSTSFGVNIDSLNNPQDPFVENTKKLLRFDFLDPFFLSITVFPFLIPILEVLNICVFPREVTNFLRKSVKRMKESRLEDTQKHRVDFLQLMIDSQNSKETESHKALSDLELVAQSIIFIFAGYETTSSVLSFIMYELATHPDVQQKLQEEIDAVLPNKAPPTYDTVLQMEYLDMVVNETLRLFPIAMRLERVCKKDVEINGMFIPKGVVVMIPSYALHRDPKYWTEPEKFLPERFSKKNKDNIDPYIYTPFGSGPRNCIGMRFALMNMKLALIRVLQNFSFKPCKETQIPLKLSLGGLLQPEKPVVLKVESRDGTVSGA
# How it was run: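 P450-Glo CYP3A4 enzyme with proluciferin substrate preincubated 10 min with compound at room temperature, then NADPH regeneration 1 h. Luciferin detection reagent added for 20 min; luminescence recorded. Ketoconazole positive control.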
# [8] = target: Phospholipid hydroperoxide glutathione peroxidase GPX4 (Homo sapiens) (UniProt P36969); test: Primary qHTS Assay for Inhibitors of Recombinant Selenoprotein Glutathione Peroxidase 4 (GPX4) (AID 1845192); further: nearly all actives have a fitted effect of over 65% in size; further: potency means the concentration at half of the fitted maximal effect
# Sequence of UniProt P36969 (P36969 whole entry, looked up): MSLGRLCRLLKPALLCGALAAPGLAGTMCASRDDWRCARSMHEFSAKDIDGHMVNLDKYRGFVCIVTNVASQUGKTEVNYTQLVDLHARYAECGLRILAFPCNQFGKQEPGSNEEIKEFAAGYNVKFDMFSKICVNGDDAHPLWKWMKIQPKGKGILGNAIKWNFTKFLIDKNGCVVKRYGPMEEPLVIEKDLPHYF
# How it was run: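 GR-coupled assay: recombinant GPX4 preincubated 30 min with compound at room temperature; final 200 nM GPX4, 1 mM GSH, 0.5 mM cumene hydroperoxide, 0.5 mM NADPH, 100 nM GR, 0.01% BSA, pH 7.5 Tris. NADPH fluorescence (340/450 nm) read at 0 and 15 min.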
# [9] = qHTS of pediatric cancer cell lines to identify multiple opportunities for drug repurposing: Primary screen for SK-N-MC cells (AID 1347093); conditions: SK-N-MC viability, CellTiter-Glo luminescence, 48 h; series mostly up to 46 µM
# How it was run: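 Metabolically active cells were quantified by ATP-dependent luminescence (CellTiter-Glo, 15 min at room temperature) following 48 h treatment. Cells had been plated at 500-1,000 per well and settled for 5 h beforehand.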
# [10] = Primary qHTS for small molecule stabilizers of the endoplasmic reticulum resident proteome: Secreted ER Calcium Modulated Protein (SERCaMP) assay (AID 1508630); conditions: SH-SY5Y GLuc-SERCaMP (Gaussia luciferase released on ER calcium loss) secretion, thapsigargin, luminescence; series mostly up to 38.4 µM; further: potency means the concentration at half of the fitted maximal effect
# How it was run: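 GLuc-SERCaMP-expressing SH-SY5Y cells, pretreated 16 h with compound, are challenged with thapsigargin to empty ER calcium stores; after 4 h, coelenterazine is added directly to the medium and luminescence is imaged.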
# [11] = target: Glutathione peroxidase 1 (Homo sapiens) (UniProt P07203); test: Primary qHTS Assay for Inhibitors of Recombinant Selenoprotein Glutathione Peroxidase 1 (GPX1) (AID 1845191); conditions: activity, negative = inhibition: at 48.8 µM (top of the series); further: potency means the concentration at half of the fitted maximal effect; nearly all actives have a fitted effect of over 65% in size
# Sequence of UniProt P07203 (P07203 whole entry, looked up): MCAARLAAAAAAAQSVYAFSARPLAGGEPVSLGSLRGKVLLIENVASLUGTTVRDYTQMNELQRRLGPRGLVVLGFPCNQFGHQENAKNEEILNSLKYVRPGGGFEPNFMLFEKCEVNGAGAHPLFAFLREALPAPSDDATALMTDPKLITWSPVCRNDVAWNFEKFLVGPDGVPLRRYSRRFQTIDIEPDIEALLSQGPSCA
# How it was run: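 GR-coupled assay: compounds preincubated 30 min at room temperature with GPX1, then reaction started with CHP; final 10 nM GPX1, 1 mM GSH, 0.5 mM CHP, 0.5 mM NADPH, 100 nM GR, 0.01% BSA, pH 7.5 Tris buffer. NADPH fluorescence (340/450 nm) read at 0 and 15 min.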
# [12] = target: Luciferin 4-monooxygenase (Photinus pyralis) (UniProt P08659); test: Primary firefly luciferase (FLuc) qHTS assay for identification of artifact compounds. (AID 1845220); further: potency means the concentration at half of the fitted maximal effect; nearly all actives have a fitted effect of over 60% in size
# How it was run: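 Titrated compounds were incubated 15 min at RT, protected from light, with luciferin and ATP at 10 uM; reaction started with 10 nM FLuc, luminescence imaged at 5 min, and concentration-response fitted by Hill equation.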
# Es-2 = test: Primary qHTS to identify gynecologic anti-cancer compounds using libraries of approved drugs and bioactive compounds (AID 1345084); conditions: Gynecologic cancer cell panel viability, ATPlite luminescence, 48 h; series mostly up to 57.5 µM; further: nearly all actives have a fitted effect of over 55% in size; further: potency means the concentration at half of the fitted maximal effect
# How it was run: as §2
# [13] = qHTS of pediatric cancer cell lines to identify multiple opportunities for drug repurposing: Primary screen for BT-12 cells (AID 1347101); further: potency means the concentration at half of the fitted maximal effect; nearly all actives have a fitted effect of over 25% in size
# How it was run: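 Cells (500-1,000/well) rested 5 h, then received compounds for 48 h; metabolically active cells were measured by CellTiter-Glo luminescence. Final concentrations spanned up to 46 µM (MIPE, 11-point) or 0.59 nM-46 µM (NPC, 8-point) in primary screens, 11-point in follow-ups.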
# [14] = tested on: Zika virus NS2B-NS3 protease (linked construct); test: Primary screen NINDS Rhodamine qHTS for Zika virus inhibitors (AID 1347160); further: potency means the concentration at half of the fitted maximal effect; nearly all actives have a fitted effect of over 55% in size
# How it was run: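 Percent inhibition, normalized to uninhibited and enzyme-free controls, is fitted to a 4-parameter Hill equation. Fluorescence change comes from a 15-min cleavage of 1.5 microM bis-peptide Rhodamine110 substrate by 25 nM linked NS2B-NS3 at room temperature.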
# Tags describe the fitted curve by direction and shape.
compound,measurement,setting,value
COc1cc(/C=C/C(=O)OC2CC(C)=C(C(=O)O)/C2=C/CO[C@@H]2O[C@H](CO)[C@@H](O)[C@H](O)[C@H]2O)ccc1O (stereo partly drawn),Potency,[1],inactive
NC(=O)c1ccccc1O,Potency,[2],inactive
same,Potency,[3],inactive
same,Potency,GB4,inactive
CC1CC(O)C2(OC1=O)OC1C(O)C3C4CCC5CC(OC6OC(CO)C(O)C(O)C6OC6OC(C)C(O)C(O)C6O)CCC5(C)C4CCC3(C)C1C2C (stereo not drawn),Potency,[4],inactive
CCCCC(CC)COC(=O)c1ccccc1O (stereo not drawn),Potency,[2],inactive
same,Potency,GB4,inactive
same,Potency,JEG-3,inactive
same,Potency,[5],"inconclusive [inhibitor, partial curve, poor fit]"
CN(C)C(=O)CNC(=O)Cc1ccccc1,Potency,[6],inactive
same,Potency,[7],inactive
same,Potency,[5],inactive
CC(C)=CCCC1(C)C2CCC1(C)C(O)C2 (stereo not drawn),Potency,[8],inactive
CC1(C(=O)O)CCCC2(C)C3CCC4CC3(CCC12)CC4(O)CO (stereo not drawn),Potency,[4],inactive
COc1ccncc1C(=O)NC(=O)Nc1ccc(-c2ccccc2)c(C(F)(F)F)c1,Potency,[3],"inconclusive [inhibitor, partial curve]"
C[C@@H](O)[C@H]1C(=O)N2C(C(=O)O)=C(SCCN=CN)C[C@H]12,Potency,[9],inactive
NCC(=O)CCC(=O)O,Potency,[6],inactive
same,Potency,[10],"inconclusive [inhibitor, partial curve, poor fit]"
same,Potency,GB4,inactive
same,Potency,[5],inactive
CCNC1(C(N)=O)CCN(c2ncnc3c2nc(-c2ccccc2Cl)n3-c2ccc(Cl)cc2)CC1,Potency,[11],"inconclusive [inhibitor, partial curve, poor fit]"
same,Potency,JEG-3,"inconclusive [rising, single point]"
Cc1ccc(-c2ccc3c(ccc4sc5c(c43)NC[C@@H](C)NC5=O)n2)cn1,Potency,[7],"inconclusive [falling, full curve]"
same,Potency,[11],"inconclusive [inhibitor, partial curve]"
same,Potency,[8],"inconclusive [inhibitor, partial curve]"
CCOC(=O)c1ccc(OCCN2C[C@H](O)[C@@H](O)[C@H](O)[C@H]2CO)cc1,Potency,[9],inactive
same,Potency,[4],inactive
same,Potency,[10],"inconclusive [inhibitor, full curve]"
same,Potency,[5],"inconclusive [inhibitor, single point]"
CCCC(C(=O)O)c1c(C)nc2ccc(Cl)cc2c1-c1ccccc1 (stereo not drawn),Potency,[8],inactive
same,Potency,JEG-3,inactive
COC(=O)CC1CC(c2ccc(O)cc2)=NO1 (stereo not drawn),Potency,[12],"inconclusive [inhibitor, partial curve, poor fit]"
same,Potency,Es-2,inactive
O=C(N[C@@H]1CC[C@@H](c2cccc(F)c2F)CN(CC(F)(F)F)C1=O)N1CCC(n2c(=O)[nH]c3ncccc32)CC1,Potency,[3],active: 12 µM
NC(N)=NC(=O)Cc1c(Cl)cccc1Cl,Potency,[9],inactive
same,Potency,[2],"inconclusive [cytotoxic, single point]"
same,Potency,[13],"inconclusive [cytotoxic, partial curve, poor fit]"
same,Potency,[10],inactive
same,Potency,GB4,active: 6.75 µM
same,Potency,[5],active: 5.62 µM
Cc1ccc(F)cc1C(=O)Nc1ccc(C(=O)N2Cc3cccn3Cc3ccccc32)c(Cl)c1,Potency,[11],"inconclusive [inhibitor, single point]"
same,Potency,JEG-3,inactive
C[C@H]1[C@H](C)CC[C@]2(C(=O)O)CC[C@]3(C)C(=CCC4[C@@]5(C)C[C@@H](O)[C@H](O)C(C)(C)C5CC[C@]43C)[C@H]12 (stereo partly drawn),Potency,[14],"inconclusive [inhibitor, single point]"
